Laboratory results from the antibiotic and cytotoxicity screens of Wong et al. (2023).
The list shows a part of the results.

How the values were obtained:
HSkMC = human skeletal muscle cells; experiment: cytotoxicity call (relative viability < 0.9); conditions: 10 µM
HepG2 = experiment: cytotoxicity call (relative viability < 0.9); conditions: 10 µM
S. aureus RN4220 = experiment: growth inhibition call (relative growth <= 0.2); conditions: 50 µM

Row | SMILES | cytotoxicity call (HSkMC) | cytotoxicity call (HepG2) | growth inhibition call (S. aureus RN4220)
1 | C[C@H]1CN([C@@H](C)CO)C(=O)CCCn2cc(nn2)CO[C@@H]1CN(C)C(=O)Nc1ccccc1C(F)(F)F | inactive | inactive | inactive
2 | O=C(C[C@@H]1CC[C@@H]2[C@H](COC[C@H](O)CN2C(=O)c2cccnc2)O1)NCc1ccc(-c2ccccc2)cc1 | inactive | inactive | inactive
3 | O=C(Nc1cc(C(=O)Nc2ccc(S(=O)(=O)O)c(S(=O)(=O)O)c2)cc(C(=O)Nc2ccc(S(=O)(=O)O)c(S(=O)(=O)O)c2)c1)Nc1cc(C(=O)Nc2ccc(S(=O)(=O)O)c(S(=O)(=O)O)c2)cc(C(=O)Nc2ccc(S(=O)(=O)O)c(S(=O)(=O)O)c2)c1 | inactive | inactive | inactive
4 | COCC#Cc1ccc2c(c1)O[C@@H](CN(C)Cc1ccc(F)cc1)[C@H](C)CN([C@H](C)CO)S2(=O)=O | inactive | inactive | inactive
5 | CC(=O)SCC(Cc1ccccc1)C(=O)NCC(=O)OCc1ccccc1 (stereo not given) | inactive | inactive | inactive
6 | CCCCCCCCCCCCCCCC(=O)OCC(NC(=O)C(Cl)Cl)C(O)c1ccc([N+](=O)[O-])cc1 (stereo not given) | inactive | inactive | inactive
7 | COc1ccc(S(=O)(=O)N(C)C[C@H]2OCCCC[C@H](C)Oc3ccc(NS(=O)(=O)c4cn(C)cn4)cc3C(=O)N([C@H](C)CO)C[C@H]2C)cc1 | inactive | inactive | inactive
8 | CCOC(=O)C1=C(C)N[C@@]2(O)C[C@@H]1[C@H]1CO[C@@H]2O1 | inactive | inactive | inactive
9 | C/C1=C/[C@@]23O[C@@]2(C[C@H](C)[C@H]3O[C@H]2O[C@@H](CO)[C@@H](O)[C@@H](O)[C@@H]2O)C(=O)[C@H](C)[C@H](O)[C@@H]2C([C@H](O)[C@@H]1O)C2(C)C (stereo not given in full) | inactive | inactive | inactive
10 | C[C@@H]1CCCCO[C@H](CN(C)C(=O)Nc2ccccc2)[C@@H](C)CN([C@H](C)CO)C(=O)c2cc(NC(=O)Nc3ccc(F)cc3)ccc2O1 | inactive | inactive | inactive
11 | Cc1ccccc1S(=O)(=O)N1C[C@H](O)COC[C@@H]2O[C@@H](CC(=O)N3CCN(C)CC3)CC[C@H]21 | inactive | inactive | inactive
12 | C[C@@H]1CN([C@@H](C)CO)C(=O)CCCn2cc(nn2)CO[C@H]1CN(C)Cc1ccc2c(c1)OCCN2C | inactive | inactive | inactive
13 | Nc1nc(=O)[nH]cc1F | inactive | inactive | inactive
14 | C/C=C/c1ccc([C@@H]2[C@@H](CO)N(S(=O)(=O)Cc3ccccc3)C23CN(C(=O)C2CCOCC2)C3)cc1 | inactive | inactive | inactive
15 | COc1ccc(S(=O)(=O)Nc2ccc3c(c2)OC[C@@H](C)N(C)C[C@@H](C)[C@H](OC)CN(C)C3=O)cc1 | inactive | inactive | inactive
16 | CCS(=O)(=O)Nc1ccc2c(c1)C(=O)N(C)[C@@H]1CC[C@H](CC(=O)NCCCN3CCOCC3)O[C@@H]1CO2 | inactive | inactive | inactive
17 | Cc1noc(C)c1NC(=O)Nc1ccc2c(c1)C(=O)N([C@@H](C)CO)C[C@H](C)[C@H](CN(C)S(=O)(=O)c1c(C)noc1C)O2 | inactive | inactive | inactive
18 | C[C@@H]1CN([C@@H](C)CO)C(=O)c2cc(NC(=O)Cn3cnnn3)ccc2O[C@@H]1CN(C)S(C)(=O)=O | inactive | inactive | inactive
19 | CSc1ncc(C(=O)NN)n1C | inactive | inactive | inactive
20 | CC(C)(N)c1cn(CC2CCN(C(=O)c3ccccc3-n3cccn3)CC2)nn1 | inactive | inactive | inactive
21 | C[C@@H]1CN([C@H](C)CO)C(=O)c2cc(NS(=O)(=O)c3cccs3)ccc2O[C@@H]1CN(C)S(=O)(=O)c1cccs1 | inactive | inactive | inactive
22 | C[C@H](CO)N1C[C@H](C)[C@H](CN(C)Cc2ccc3c(c2)OCO3)OCCCC[C@H](C)Oc2ccc(NC(=O)Nc3ccc(C(F)(F)F)cc3)cc2C1=O | active | active | inactive
23 | COc1ccc(CN(C)C[C@H]2Oc3ccc(NC(=O)CCCN(C)C)cc3C(=O)N([C@H](C)CO)C[C@H]2C)cc1 | inactive | inactive | inactive
24 | C[C@@H]1CCCCO[C@@H](CN(C)C(=O)Nc2ccccc2)[C@@H](C)CN([C@H](C)CO)C(=O)c2cc(NS(=O)(=O)c3ccc(Cl)cc3)ccc2O1 | inactive | inactive | inactive
25 | CON=C(C(=O)NC1C(=O)N2C(C(=O)[O-])=C(COC(C)=O)CSC12)c1csc(N)n1.[Na+] (stereo not given) | inactive | inactive | active
26 | COc1ccc(S(=O)(=O)Nc2ccc3c(c2)C(=O)N([C@@H](C)CO)C[C@@H](C)[C@@H](CN(C)CC2CCCCC2)OCCCC[C@@H](C)O3)cc1 | inactive | active | inactive
27 | C[C@H](CO)N1C[C@H](C)[C@H](CN(C)C(=O)Nc2ccc(C(C)(C)C)cc2)OCc2cn(nn2)CCCC1=O | inactive | inactive | inactive
28 | O=C(C[C@H]1CC[C@H]2[C@@H](COC[C@H](O)CN2C(=O)Nc2ccc(C(F)(F)F)cc2)O1)NCc1ccncn1 | inactive | inactive | inactive

Row | SMILES | cytotoxicity call (HSkMC) | cytotoxicity call (HepG2) | growth inhibition call (S. aureus RN4220)
29 | CC(C)(C)OC(=O)C[C@@H]1CC=CC[C@@H](CC(=O)N[C@@H](CO)Cc2ccccc2)C(=O)N[C@@H](C(C)(C)C)COC1=O | inactive | inactive | inactive
30 | O=C(C[C@H]1CC[C@@H](NS(=O)(=O)c2ccccc2F)[C@@H](CO)O1)NCCCN1CCOCC1 | inactive | inactive | inactive
31 | C[C@@H]1CCCCO[C@H](CN(C)S(=O)(=O)c2cn(C)cn2)[C@H](C)CN([C@@H](C)CO)C(=O)c2cc(NS(=O)(=O)c3cccs3)ccc2O1 | inactive | inactive | inactive
32 | C[C@@H]1CN([C@H](C)CO)C(=O)c2cc(NC(=O)CCCN(C)C)ccc2O[C@H]1CN(C)S(=O)(=O)c1ccc(F)cc1 | inactive | inactive | inactive
33 | COc1ccc(S(=O)(=O)Nc2ccc3c(c2)C(=O)N([C@H](C)CO)C[C@@H](C)[C@@H](CN(C)S(=O)(=O)c2ccc(OC)cc2)O3)cc1 | inactive | inactive | inactive
34 | Cc1ccc([C@@H](N)c2ccncc2)cc1 | inactive | inactive | inactive
35 | C[C@@H]1CCCCO[C@H](CN(C)C(=O)CCC(F)(F)F)[C@H](C)CN([C@@H](C)CO)C(=O)c2cc(NC(=O)Nc3ccccc3)ccc2O1 | inactive | inactive | inactive
36 | C[C@@H]1CN([C@H](C)CO)C(=O)c2cc(NC(=O)Cc3ccccc3)ccc2O[C@@H]1CN(C)S(=O)(=O)c1cn(C)cn1 | inactive | inactive | inactive
37 | COc1ccc(S(=O)(=O)N(C)C[C@@H]2Oc3ccc(NC(=O)Nc4c(C)noc4C)cc3CC(=O)N([C@@H](C)CO)C[C@@H]2C)cc1 | inactive | inactive | inactive
38 | C[C@@H]1CN([C@H](C)CO)C(=O)c2cc(-c3cncnc3)cnc2O[C@@H]1CN(C)C(=O)CN1CCOCC1 | inactive | inactive | inactive
39 | COc1ccc(CN(C)C[C@@H]2OCCCC[C@@H](C)Oc3ccc(NC(=O)NC4CCCCC4)cc3C(=O)N([C@@H](C)CO)C[C@H]2C)cc1 | inactive | inactive | inactive
40 | C[C@H](CO)N1C[C@H](C)[C@H](CN(C)Cc2ccc(C(F)(F)F)cc2)Oc2c(NS(C)(=O)=O)cccc2C1=O | inactive | inactive | inactive
41 | CC(=O)n1cc([C@@H]2C=C(C(=O)N3CCCCCCC3)O[C@H](OCc3ccc(CO)cc3)C2)c2ccccc21 | inactive | inactive | inactive
42 | Cc1noc(C)c1S(=O)(=O)Nc1ccc2c(c1)C(=O)N([C@@H](C)CO)C[C@H](C)[C@H](CN(C)Cc1ccc(C(=O)O)cc1)O2 | inactive | inactive | inactive
43 | O=C(Nc1cc(Cl)cc(Cl)c1O)c1c(O)c(Cl)cc(Cl)c1Cl | inactive | inactive | active
44 | CC(C)(C)[S@](=O)N1Cc2cc(C(=O)N[C@H]3CCN(Cc4ccccc4)C3)nc(-c3cccc(-c4cccnc4)c3)c2[C@@H]1CCO | inactive | inactive | inactive
45 | C[C@@H]1CN([C@@H](C)CO)S(=O)(=O)c2ccc(Br)cc2O[C@H]1CN(C)Cc1cccc(F)c1 | inactive | inactive | inactive
46 | O=C(CCCCCNC(=O)OCc1ccc(CO[C@H]2C[C@@H](c3csc4ccccc34)C=C(C(=O)N3CCN(Cc4ccccc4)CC3)O2)cc1)NO | inactive | inactive | inactive
47 | C[C@@H]1CN([C@H](C)CO)C(=O)c2cccc(NC(=O)NC3CCCCC3)c2O[C@H]1CN(C)C(=O)Nc1ccc(C(F)(F)F)cc1 | inactive | active | inactive
48 | COC[C@@H]1CN(C(=O)[C@H]2CCCN2C)N1 | inactive | inactive | inactive
49 | C[C@@H]1CCCCO[C@@H](CN(C)C(=O)Nc2ccccc2)[C@H](C)CN([C@@H](C)CO)C(=O)c2cc(NC(=O)Nc3ccc(C(F)(F)F)cc3)ccc2O1 | inactive | inactive | inactive
50 | C[C@H](CO)N1C[C@H](C)[C@H](CN(C)S(=O)(=O)c2cccs2)Oc2ccc(NS(C)(=O)=O)cc2CC1=O | inactive | inactive | inactive
51 | O=C(O)c1nc(-c2cnccn2)no1 | inactive | inactive | inactive
52 | COc1ccc(NC(=O)N(C)C[C@H]2OCCCC[C@H](C)Oc3ccc(NC(=O)Nc4ccc5c(c4)OCO5)cc3C(=O)N([C@@H](C)CO)C[C@@H]2C)cc1 | inactive | inactive | inactive
53 | CC1(C)OC(=O)C2(C(=O)O1)[C@@H](c1ccc(-c3ccc(Br)cc3)cc1)CC(=O)C[C@H]2c1ccccc1 | inactive | inactive | inactive
54 | COc1ccc(S(=O)(=O)N(C)C[C@H]2Oc3ccc(N(C)C)cc3CC(=O)N([C@@H](C)CO)C[C@H]2C)cc1 | inactive | inactive | inactive
55 | C[C@H]1CN([C@@H](C)CO)C(=O)Cc2cc(NC(=O)Cn3cnnn3)ccc2O[C@H]1CN(C)C(=O)NC1CCCCC1 | inactive | inactive | inactive
